# Test results published in the supplement of paper PMC8728848.
# This is one part of the list.
# B1: Epa1-NP-mutant-Y228A (Candida glabrata), Q6VBJ0 (protein)
# chain: MILNPALFLNKCVCIYTTLILLLLTNGGYATSSNDISLASKDPTTFPLGCSPDITTPKKGLSMELYSYDFRKKGSYPCWDAAYLDPNYPRTGYKSHRLLAKVDGVTGNINFYYHATKGCTPQLGHLPASYNYPKPLTMTNFTMLLYGYFRPKVTGFHTFTISADDLLFVNFGAGNAFDCCRRDSSADHFGNYQAYAIWGSKTAKDELTVHLDAGVYYPIRLFYNNREADGALSFTFKTESNENTVSDFSEYFFSLDDTEEGCPGLISYDSSCASVKTSKIIGIDYHTETPNENLVPITKTIYHLGIPCTGTTTTPLCGSGFYDPLANKCVTINTSSTSSVTKTTSHTTSKEVSFHSSISSQKTLIPKSIPSPYGPIKSQSIPTEMETSSEISSSEYAFSDVISTPSHSPYTKKHSSLNSSSYTSTVIHSLTSYSISQGIFSTSLSEQNITSKSSTDKFSTATSMSNNITQSSIIISQFSTNNENYTTTSMHTSSDKISTETLNNSISTTTSILFSNSSTILKNNTTIISSDKDTHYHPVNPTIVCSTNKTEIICASITQPSISNSNNHWSSSVLKFNSTTVRSTLPSSAGSNETSINVPFSSSTESNTSTSSTSTSNSKMVRSTLPSSAGSNETSISVPFSSSTESNTSTSSTSTSNSKMVRSTLPSSAGSNETSINVPFSSSTESNTSTSSTSTSNSKTVRSTPFSSAGIIMTSLSQRNNKSASSYASSNSKCYNTADSCRKVHSTPSYLLTSSYTSEGVDYDCSLVSTKLKINDTNCVNNKHTTKSCLKTSVTTTIPTLEIKTARKSSSNTIGLHSYPTSSPNKSISSAPIIGYISSFKTIKTASPSYQTSDLTTITTITSLNNPGSTAVENTHESNDKSRKTSSNDISSKHSVIKETKDAVESSNKSHQTNTLKCSSIIIASSSHNSYESLGGTTLTLTLSKVYSPQNNDTLPFLEISEVNPSRTVLPESSKMMQYLTSTEERNKTARNTIATNIVSISTFHFEGEGNAIRMGYTQLLLMLIGIIVMNIGT
# Key:
# Assay in all cases: glycan array binding signal (z-score within array); higher = stronger binding
# Settings in all cases: glycan notation: IUPAC condensed, linker removed; mutation: Y228A
# [1] = molecular target: Gal3S(b1-3)[Fuc(a1-4)]GlcNAc
# Outline: (§1)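 Glycan array data came from 3228 arrays in the Consortium for Functional Glycomics database, and only arrays with an available protein sequence were kept. Glycan names were put into IUPAC-condensed notation, and columns mapping to the same glycan were averaged. The binding signal is a within-array Z-score, averaged across arrays of one protein sequence run at different concentrations or buffers and across linkers. A negative Z-score can be read as non-binding.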
# Gal3S(b1-4)Glc = molecular target: Gal3S(b1-4)Glc
# Outline: as §1
# Gal3S(b1-4)Glc6S = molecular target: Gal3S(b1-4)Glc6S
# Outline: as §1
# Gal3S(b1-4)GlcNAc = molecular target: Gal3S(b1-4)GlcNAc
# Outline: as §1
# [2] = molecular target: Gal3S(b1-4)[Fuc(a1-3)]Glc6S
# Outline: as §1
# [3] = molecular target: Gal3S(b1-4)[Fuc(a1-3)]GlcNAc
# Outline: as §1
# [4] = molecular target: Gal3S(b1-4)[Fuc(a1-3)]GlcNAc6S
# Outline: as §1
# Gal3S4S(b1-4)GlcNAc = molecular target: Gal3S4S(b1-4)GlcNAc
# Outline: as §1
# Gal3S6S(b1-4)GlcNAc = molecular target: Gal3S6S(b1-4)GlcNAc
# Outline: as §1
# Gal3S6S(b1-4)GlcNAc6S = molecular target: Gal3S6S(b1-4)GlcNAc6S
# Outline: as §1
# Gal4S(b1-4)GlcNAc = molecular target: Gal4S(b1-4)GlcNAc
# Outline: as §1
# Gal4S6S(b1-4)GlcNAc = molecular target: Gal4S6S(b1-4)GlcNAc
# Outline: as §1
# Gal6P(b1-4)GlcNAc = molecular target: Gal6P(b1-4)GlcNAc
# Outline: as §1
# Gal6S(b1-3)GlcNAc = molecular target: Gal6S(b1-3)GlcNAc
# Outline: as §1
# Gal6S(b1-3)GlcNAc6S = molecular target: Gal6S(b1-3)GlcNAc6S
# Outline: as §1
# Gal6S(b1-4)Glc = molecular target: Gal6S(b1-4)Glc
# Outline: as §1
# Gal6S(b1-4)Glc6S = molecular target: Gal6S(b1-4)Glc6S
# Outline: as §1
# Gal6S(b1-4)GlcNAc = molecular target: Gal6S(b1-4)GlcNAc
# Outline: as §1
# Gal6S(b1-4)GlcNAc6S = molecular target: Gal6S(b1-4)GlcNAc6S
# Outline: as §1
# GalNAc(a1-3)Gal = molecular target: GalNAc(a1-3)Gal
# Outline: as §1
# GalNAc(a1-3)GalNAc = molecular target: GalNAc(a1-3)GalNAc
# Outline: as §1
# [5] = molecular target: GalNAc(a1-3)GalNAc(b1-3)Gal(a1-4)Gal(b1-4)Glc
# Outline: as §1
# [6] = molecular target: GalNAc(a1-3)GalNAc(b1-3)Gal(a1-4)Gal(b1-4)GlcNAc
# Outline: as §1
# GalNAc(b1-3)Gal = molecular target: GalNAc(b1-3)Gal
# Outline: as §1
# [7] = molecular target: GalNAc(b1-3)Gal(a1-4)Gal(b1-4)GlcNAc
# Outline: as §1
# [8] = molecular target: GalNAc(b1-3)Gal(a1-4)Gal(b1-4)GlcNAc(b1-3)Gal(b1-4)Glc
# Outline: as §1
# [9] = molecular target: GalNAc(b1-3)Gal(a1-6)Gal(b1-4)Glc
# Outline: as §1
# GalNAc(b1-3)GalNAc = molecular target: GalNAc(b1-3)GalNAc
# Outline: as §1
# GalNAc(b1-3)GlcNAc = molecular target: GalNAc(b1-3)GlcNAc
# Outline: as §1
# GalNAc(b1-4)Gal(b1-4)Glc = molecular target: GalNAc(b1-4)Gal(b1-4)Glc
# Outline: as §1
binder,measurement,setting,value
B1,glycan array binding signal (z-score),[1],-0.046
same,glycan array binding signal (z-score),Gal3S(b1-4)Glc,-0.141
same,glycan array binding signal (z-score),Gal3S(b1-4)Glc6S,-0.193
same,glycan array binding signal (z-score),Gal3S(b1-4)GlcNAc,-0.214
same,glycan array binding signal (z-score),[2],-0.074
same,glycan array binding signal (z-score),[3],-0.148
same,glycan array binding signal (z-score),[4],-0.089
same,glycan array binding signal (z-score),Gal3S4S(b1-4)GlcNAc,-0.259
same,glycan array binding signal (z-score),Gal3S6S(b1-4)GlcNAc,-0.198
same,glycan array binding signal (z-score),Gal3S6S(b1-4)GlcNAc6S,-0.137
same,glycan array binding signal (z-score),Gal4S(b1-4)GlcNAc,-0.365
same,glycan array binding signal (z-score),Gal4S6S(b1-4)GlcNAc,-0.16
same,glycan array binding signal (z-score),Gal6P(b1-4)GlcNAc,-0.164
same,glycan array binding signal (z-score),Gal6S(b1-3)GlcNAc,-0.026
same,glycan array binding signal (z-score),Gal6S(b1-3)GlcNAc6S,5.91
same,glycan array binding signal (z-score),Gal6S(b1-4)Glc,0.838
same,glycan array binding signal (z-score),Gal6S(b1-4)Glc6S,4.82
same,glycan array binding signal (z-score),Gal6S(b1-4)GlcNAc,0.109
same,glycan array binding signal (z-score),Gal6S(b1-4)GlcNAc6S,1.79
same,glycan array binding signal (z-score),GalNAc(a1-3)Gal,-0.29
same,glycan array binding signal (z-score),GalNAc(a1-3)GalNAc,-0.059
same,glycan array binding signal (z-score),[5],-0.261
same,glycan array binding signal (z-score),[6],-0.268
same,glycan array binding signal (z-score),GalNAc(b1-3)Gal,-0.202
same,glycan array binding signal (z-score),[7],-0.145
same,glycan array binding signal (z-score),[8],-0.285
same,glycan array binding signal (z-score),[9],-0.24
same,glycan array binding signal (z-score),GalNAc(b1-3)GalNAc,-0.233
same,glycan array binding signal (z-score),GalNAc(b1-3)GlcNAc,-0.135
same,glycan array binding signal (z-score),GalNAc(b1-4)Gal(b1-4)Glc,-0.188
